# “And” between values parts separate entries of the source, which are not always exact repeats. Equal values may be shown once. In all, about 94,000 compounds went through this assay and about 6,200 (6.6%) were called active. This list was built around the results that the source calls inconclusive (neither active nor inactive); the mix of calls is not that of the screen. Calls follow the shape of the dose curve; as a rule, active = well fitted inhibition curve with a large enough effect; inconclusive = small, poorly fitted or top-dose-only effect; inactive = flat fitted curve, though single readings scatter. A potency beside an inconclusive call is a rough fit, not a confirmed value.
# Experiment: Cytotoxic Profiling in HEK 293 Cell Line of Diverse Libraries Using Quantitative High-Throughput Screening; also: nearly all actives have a fitted effect of over 60% in size
# Settings: HEK 293 viability, ATP luminescence (CellTiter-Glo), 48-72 h; activity change, negative = cytotoxicity: at 115 µM (top of the series) unless noted; series mostly up to 115 µM
# Outline: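 HEK 293 cells at 250 cells/well were exposed to compounds by pintool transfer for 48 or 72 hr at 37 degree Celsius, 5% CO2. Viability was read as ATP-coupled luminescence with CellTiter-Glo after 10 min at room temperature.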
# % is scaled to controls: 0 for no effect and ±100 for the full control effect; potency is read from the fitted curve at half-maximal effect; tags tell the direction and shape of the fitted curve.
SMILES,"activity change, negative = cytotoxicity",Potency,outcome
COc1ccc(OCc2nc(C)c(CCO)c(=O)n2CC(=O)Nc2cc(OC)ccc2OC)cc1,inactive: -7.72%,,
O=C(Nc1ccccc1)c1cnc2c(c1)N([S+](=O)([O-])c1cccnc1)CCC2,,"inconclusive: 126 µM [inhibitor, single point]",
O=C1CC2(CCN(C(=O)C3CCCN3C(=O)c3ccc(Cl)nc3)CC2)Oc2ccccc2N1 (stereo unspecified),inactive: -17.3%,,
Cn1ccnc1CN1CCCC(NC(=O)c2ccc3c(c2)CCCO3)CC1 (stereo unspecified),,"inconclusive: 89.1 µM [inhibitor, single point]",
C[S+](=O)([O-])c1cccc(-c2ncc3c(n2)OCCN(Cc2ccc(F)cc2F)C3=O)c1,,"inconclusive: 79.4 µM [inhibitor, single point]",
Cn1nc(C(=O)N2CCC(Oc3ccc(-c4noc(C5CC5)n4)cc3)C2)c2ccccc21 (stereo unspecified),,"inconclusive: 6.31 µM [inhibitor, full curve, poor fit]",
O=C(c1ccc2nc(-c3ccnc(Cl)c3)oc2c1)N1CCOCC1,,"inconclusive: 100 µM [inhibitor, partial curve, poor fit]",
CCCCNC(=O)CCCN1C(=O)COc2ccc(C(C)(C)CC)cc21,,active: 44.7 µM,
COCCNC(=O)CCc1nc(C2CCCN2C(=O)c2ccccc2)no1 (stereo unspecified),inactive: -0.464%,,
Cc1ccc(NC(=O)Cn2c(-c3ccccc3)nc(C)cc2=O)c(C)c1,,"inconclusive: 8.91 µM [inhibitor, full curve, poor fit]",
Cc1ccc(CNC(=O)CC2CCCN(c3cnn(C)c(=O)c3)C2)cc1 (stereo unspecified),inactive: -14.8%,,
Brc1ccc(-c2ccnc3nc(C4CCCO4)nn23)s1 (stereo unspecified),inactive: 3.64%,,
COc1ccc(Cl)cc1NC(=O)c1cc(-c2ccc[nH]2)n[nH]1,,"inconclusive: 50.1 µM [inhibitor, partial curve, poor fit]",
CCCCOC(=O)N1C[C@@H](C(N)=O)[C@@H]2Oc3c(C)cccc3[C@@H]21,,"inconclusive: 79.4 µM [inhibitor, partial curve]",
O=C(c1cccc(Cl)c1)N1CCCC(c2nn(-c3cccc(Cl)c3)c(=O)[nH]2)C1 (stereo unspecified),,"inconclusive: 50.1 µM [inhibitor, partial curve, poor fit]",
Cn1c(Cn2cccn2)nnc1C1CC(NC(=O)CN2CCCCCCC2)C1 (stereo unspecified),inactive: -20.5%,,
Cc1nc2c(c(-c3ccc(O)cc3)n1)CN(C(=O)c1ccccc1Cl)CC2,inactive: -22.1%,,
COc1ccc(C2(C(=O)N3C[C@@H](Oc4ccccc4)C[C@H]3C(=O)N3CCCC3)CC2)cc1,inactive: -21.6%,,
O=C(NCC1CCCN(C(=O)c2ccsc2)C1)c1ccc(-c2ccccc2)cc1 (stereo unspecified),,active: 44.7 µM,
CCOc1cc(=O)n2c(c1C(=O)Nc1ccc(F)c(C)c1)CCCC2,,"inconclusive: 89.1 µM [inhibitor, single point]",
CSc1ccc(-c2cccc(C(=O)NCC(=O)NCCc3ccc(F)cc3)c2)cc1,,"inconclusive: 22.4 µM [inhibitor, full curve]",
COc1ccc(-c2noc(CC3CCN(C(=O)Cc4ccc(OC)c(OC)c4)CC3)n2)cc1,,"inconclusive: 8.91 µM [inhibitor, full curve, poor fit]",

SMILES,"activity change, negative = cytotoxicity",Potency,outcome
COc1ccc(C(=O)Nc2ccc3n(c2=O)C[C@H]2C[C@@H]3CN(S(=O)(=O)c3ccc(OC)cc3)C2)cc1,,"inconclusive: 89.1 µM [inhibitor, single point]",
COc1cccc(-c2ccc(C(=O)N3CCC(C(=O)NCC(F)(F)F)CC3)cc2)c1,,"inconclusive: 50.1 µM [inhibitor, partial curve]",
COc1cc(NC(=O)Cn2c(C)cc3nc4n(c(=O)c32)CCCCC4)cc(OC)c1,,"inconclusive: 89.1 µM [inhibitor, single point]",
COc1ccc(C(CC(=O)N(C)Cc2cc(C)no2)c2ccccc2)cc1 (stereo unspecified),,"inconclusive: 50.1 µM [inhibitor, partial curve, poor fit]",
Cc1nn2c(c1-c1ccccc1OCc1ccccc1)N(C(=O)CN1CCOCC1)CCC2,inactive: -4.91%,,
COc1cccc(OCC(=O)c2ccc3c(c2)N(CC(=O)NCc2ccc(F)cc2)C(=O)CO3)c1,,"inconclusive: 39.8 µM [inhibitor, partial curve]",
C=CCCOC(=O)N1C[C@@H](CO)[C@@H]2Oc3ccc(Cl)cc3[C@@H]21,,"inconclusive: 89.1 µM [inhibitor, partial curve]",
COc1cccc(N2C(=O)NC(=NC3CCCC3)C23CCCN(Cc2ccc(N(C)C)cc2)C3)c1 (stereo unspecified),,"inconclusive: 50.1 µM [inhibitor, partial curve, poor fit]",
O=C(NCC1CCCO1)c1csc(N2CCN(c3ccccc3F)CC2)n1 (stereo unspecified),,active: 89.1 µM,
O=C(c1cc2n(n1)CC(c1ccc(Cl)cc1)OC2)N1CCN(c2ccc(Cl)cc2)CC1 (stereo unspecified),,active: 31.6 µM,
COc1ccc(NC(=O)c2ccc3c(c2)C2(CCN(C)C2)CN3CC2CC2)cc1 (stereo unspecified),,active: 50.1 µM,
CCN1c2cc(C(=O)NCc3ccc(SC)cc3)ccc2C(=O)N2CCCCCC21 (stereo unspecified),,"inconclusive: 79.4 µM [inhibitor, partial curve, poor fit]",
Cc1noc(-c2cccn3c(CNC(=O)c4ccccc4)nnc23)n1,inactive: -4.73%,,
Cn1cnc([S+](=O)([O-])N2CCC3CC(=O)NCCC3C2)c1 (stereo unspecified),,,inactive
CCCNC(=O)C1COC2(CCN(C(=O)c3ccc(OC)cc3)CC2)N1C(=O)c1ccccc1 (stereo unspecified),inactive: -1.48%,,
O=C(NCc1ccc(-c2cnc3c(Oc4ccccc4)nccn23)cc1)c1cccc(O)c1,,"inconclusive: 31.6 µM [inhibitor, full curve, poor fit]",
O=C1CO[C@H]2CN(Cc3c[nH]c4ccccc34)C[C@H]2N1,,"inconclusive: 141 µM [inhibitor, partial curve, poor fit]",
COc1ccccc1-c1cccc(CN2CCCC(C(=O)N3CCCC(C)C3)C2)c1 (stereo unspecified),,active: 39.8 µM,
COc1ncccc1-c1nc(-c2c(C)noc2C)cc2c1cc(C)n2C,,"inconclusive: 15.8 µM [inhibitor, partial curve, poor fit]",
CC[C@H]1CN(S(=O)(=O)c2c(C)noc2C)CC[C@H]1CC(=O)NCc1ccc(F)cc1,,"inconclusive: 79.4 µM [inhibitor, partial curve, poor fit]",
CN1C(=O)c2cccn2CC1C(=O)Nc1cccc(Cl)c1 (stereo unspecified),,,inactive
CN1[C@@H](CCC(=O)NCc2cccs2)CNC(=O)[C@@H]2[C@H]1CCN2Cc1cccc(OC(F)(F)F)c1,,"inconclusive: 89.1 µM [inhibitor, single point]",

SMILES,"activity change, negative = cytotoxicity",Potency,outcome
C=CCNC(=O)c1csc2nc(-c3cccc(C(F)(F)F)c3)cn12,,"inconclusive: 50.1 µM [inhibitor, partial curve, poor fit]",
CCN1Cc2cc(F)ccc2N(C[C@@H](O)COCc2ccccc2)CCC1=O,,"inconclusive: 89.1 µM [inhibitor, single point]",
COc1ccc(-n2nc(C3CCN(Cc4cccn4C)CC3)[nH]c2=O)cc1,,active: 39.8 µM,
COc1ccc(CCNC(=O)c2ccc3nnc(-c4ccc(Cl)cc4)n3c2)cc1,inactive: -6.36%,,
COc1ccc(-c2nnc(C[C@@H]3C[C@@H](C(C)C)[C@H](CN(C)CCc4ccccn4)C=C3C)o2)cc1,,active: 22.4 µM,
COCCN1CC(CO)C2(CCN(Cc3ccc(OC)cc3OC)CC2)C1 (stereo unspecified),,"inconclusive: 89.1 µM [inhibitor, single point]",
CC1Oc2ccc(NC(=O)COc3ccccc3)cc2CN(Cc2ccccc2)C1=O (stereo unspecified),,"inconclusive: 17.8 µM [inhibitor, full curve, poor fit]",
O=C(c1cccc(Cl)c1)N1CCC(C(=O)N2CCC(N3Cc4ccccc4C3=O)CC2)CC1,,"inconclusive: 39.8 µM [inhibitor, full curve, poor fit] and inconclusive: 50.1 µM [inhibitor, partial curve, poor fit]",
O=C(NCCOc1ccccc1)c1cc(COc2ccccc2)[nH]n1,,"inconclusive: 50.1 µM [inhibitor, partial curve, poor fit]",
O=C(CCC[C@H]1NC[C@@H]2C[C@H]1CN(Cc1ccccc1)C2)Nc1ccc(F)cc1F,,"inconclusive: 50.1 µM [inhibitor, partial curve, poor fit]",
COCCNC(=O)c1cc(-c2ccc([S+](C)(=O)[O-])cc2)nc2c1cnn2C,inactive: -11.7%,,
COc1ncccc1CN1CC[C@@H]2OCC(=O)N(Cc3ccccc3)[C@H]2CC1,,active: 112 µM,
COc1ccccc1Cn1c(=O)c(C(=O)NCC(F)F)nc2cccnc21,inactive: -5.34%,,
COCC(=O)Nc1cc(C2CCCC2)nn1C,inactive: -3% [at 172 µM],,
C[C@H](N)C(=O)N1CCC(n2nccc2NC(=O)Nc2ccccc2Cl)CC1,,"inconclusive: 39.8 µM [inhibitor, single point]",
Cn1ncc2c(C(=O)N3CCN(c4ncccn4)CC3)cc(-c3ccc(C(F)(F)F)cc3)nc21,,active: 50.1 µM,
COc1ccc(NC(=O)O[C@@H]2CO[C@H]3[C@@H]2OC[C@@H]3Nc2nccc(-c3cccc(F)c3)n2)cc1,inactive: -27.5%,,
COc1cncc([C@@H](NC(=O)c2scc3c2OCCO3)C2CC(O)C2)c1 (stereo partly specified),inactive: -2.36%,,
O=C(NCc1ccccc1F)c1ccc2c(c1)CN(Cc1ccc(O)c(F)c1)CCO2,,"inconclusive: 89.1 µM [inhibitor, single point]",
COc1ccccc1-n1c(=O)c(C(=O)NCc2ccc(F)cc2)nc2cccnc21,inactive: 0.787%,,
O=C(NCC1CC1)c1nc2c(o1)CCN(Cc1ccc3c(c1)CCO3)CC2,,"inconclusive: 56.2 µM [inhibitor, partial curve, poor fit]",
O=C(NC1CCCN(c2cc(-c3ccc(Cl)cc3)[nH]n2)C1)c1ccccn1 (stereo unspecified),,active: 44.7 µM,

# — PubChem BioAssay AID1345083 (National Center for Advancing Translational Sciences (NCATS), 2018)
